Results as given in the supplement of paper PMC4166925.
± gives the standard deviation of the averaged measurements. In all, about 33,000 sequences were measured (“E-score (dimensionless, -0.5 to 0.5)”: median about -0.046, highest 2% from about 0.36 on). The list shows a part of the results.

tested on: T1, SpTbr T-box DNA-binding domain (GST fusion); assay: PBM E-score of 8-mer (E-score (dimensionless, -0.5 to 0.5)); Tbr is Tbrain of the sea star Patiria miniata (Pm) or the sea urchin Strongylocentrotus purpuratus (Sp); higher = stronger binding preference; most listed sequences are background and not binding sites; details: the construct has about 5 more residues each side
T1 sequence: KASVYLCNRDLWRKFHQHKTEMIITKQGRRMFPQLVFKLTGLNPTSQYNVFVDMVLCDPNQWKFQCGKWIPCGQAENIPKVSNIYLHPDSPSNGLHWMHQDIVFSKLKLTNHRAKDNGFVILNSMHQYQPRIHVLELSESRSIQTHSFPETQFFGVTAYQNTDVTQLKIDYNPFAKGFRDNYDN
Method in brief: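 Primer extension turned Universal Agilent oligonucleotide arrays double-stranded. They were incubated with 200 nM protein in PBS (pH 7.5); the protein was a GST-fused Tbr T-box DNA-binding domain expressed in BL21 E. coli at 20 °C and purified on glutathione. Every ungapped 8-mer was scored from the scanned, quantified probe intensities, and the Universal PBM Analysis Suite gave each an enrichment E-score averaged over duplicate arrays.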

Row | Sequence | PBM E-score of 8-mer
1 | GTATCAAA | -0.262 ± 0.055
2 | CCTTGGCA | 0.217 ± 0.058
3 | GTTATCGA | 0.179 ± 0.041
4 | ACTTAAAA | -0.158 ± 0.074
5 | ATGCGCGC | 0.157 ± 0.021
6 | ACGGTTGC | 0.121 ± 0.067
7 | AAGGGGCC | -0.137 ± 0.0041
8 | CTGGCCAA | -0.153 ± 0.029
9 | CGGCTATC | -0.169 ± 0.048
10 | ACACGGTC | 0.0193 ± 0.02
11 | AGTTACAG | -0.146 ± 0.064
12 | CACGATAG | -0.00949 ± 0.03
13 | CCAAATGA | -0.214 ± 0.025
14 | AGCTGGGC | -0.183 ± 0.028
15 | GCAGTCAA | 0.0789 ± 0.012
16 | CGAACGCC | 0.143 ± 0.055
17 | AGCGGAAT | -0.162 ± 0.011
18 | GATCATTA | -0.229 ± 0.0073
19 | AAATTCGA | -0.037 ± 0.13
20 | GGCATTGA | -0.2119 ± 0.0014
21 | AGATCGAC | -0.0961 ± 0.033
22 | TCCACACA | 0.305 ± 0.0032

Row | Sequence | PBM E-score of 8-mer
23 | CTAAAAAG | -0.0115 ± 0.032
24 | CAGTGTCG | 0.266 ± 0.0072
25 | GCCAAGGC | 0.0335 ± 0.021
26 | AATATTTA | -0.205 ± 0.06
27 | ATGCACTG | -0.244 ± 0.048
28 | ATTGGGAG | -0.168 ± 0.032
29 | ACCAAAGA | -0.067 ± 0.035
30 | TAGCAATA | 0.0438 ± 0.026
31 | CACTACTC | -0.109 ± 0.0032
32 | AGAACAAT | -0.0181 ± 0.019
33 | CGTATAGC | -0.0189 ± 0.00065
34 | GTCGTAAA | -0.0128 ± 0.013
35 | CCAACACC | 0.4264 ± 0.0023
36 | AAAGTGTG | 0.441 ± 0.0064
37 | AAAACTCC | -0.156 ± 0.054
38 | ATCTTGCA | -0.167 ± 0.0076
39 | CCGGACAC | 0.0552 ± 0.0014
40 | GAAGCACC | -0.114 ± 0.056
41 | GACTACTC | -0.0344 ± 0.062
42 | CCGTGCAG | -0.0645 ± 0.088
43 | ACGTGTAC | 0.0673 ± 0.011
44 | CTCGCCGA | 0.00928 ± 0.1

Row | Sequence | PBM E-score of 8-mer
45 | AGTATAAT | -0.0592 ± 0.009
46 | ATCGGATC | -0.0422 ± 0.034
47 | AGGCGTTA | 0.434 ± 0.018
48 | CAATCCAA | 0.2149 ± 0.00083
49 | CAAAGATA | -0.0142 ± 0.053
50 | TACTACCA | -0.244 ± 0.0066
51 | CGTCCAGA | -0.14 ± 0.057
52 | GCATATCC | 0.0811 ± 0.1
53 | CGAATTCG | 0.101 ± 0.017
54 | GAACGCGA | 0.186 ± 0.049
55 | AGAGCAGA | -0.202 ± 0.049
56 | ATATGTAC | -0.195 ± 0.0059
57 | CGCGCACC | 0.266 ± 0.033
58 | ACCGTATA | -0.0971 ± 0.063
59 | AGACGGAT | -0.122 ± 0.058
60 | ATAGAAAA | -0.102 ± 0.092
61 | AAGCCGCT | -0.0961 ± 0.043
62 | CAGAGGCA | -0.202 ± 0.029
63 | AGATACTG | -0.164 ± 0.008
64 | ACTCTCAC | 0.285 ± 0.036
65 | CATAATAA | -0.138 ± 0.012
66 | AATTGCGT | -0.129 ± 0.012

Row | Sequence | PBM E-score of 8-mer
67 | CCTGAATA | -0.0462 ± 0.017
68 | CACACAGC | 0.3041 ± 0.00096
69 | AATATTGC | -0.0727 ± 0.02
70 | AATGACGA | 0.0109 ± 0.005
71 | CCTTGTCA | 0.2984 ± 0.0013
72 | AGCGCTCA | 0.18 ± 0.041
73 | AAATGTGA | 0.235 ± 0.053
74 | GATATACA | -0.11 ± 0.057
75 | AGAGTCCG | -0.247 ± 0.017
76 | ACCTTGTC | 0.246 ± 0.036
77 | AGAGTTCC | -0.201 ± 0.047
78 | ACTCCGTG | -0.129 ± 0.043
79 | AAACTGGG | -0.0707 ± 0.0073
80 | CTATGCCC | -0.358 ± 0.019
81 | ATTACGCA | -0.00702 ± 0.012
82 | CGAGGTCC | -0.207 ± 0.017
83 | AAACCTCT | -0.292 ± 0.061
84 | ATTCCATG | 0.0479 ± 0.017
85 | GACCATCC | -0.25 ± 0.017
86 | CCGATAAA | -0.0119 ± 0.097
87 | CACAGACA | 0.103 ± 0.0082
88 | CTCCTAAG | -0.217 ± 0.051

Row | Sequence | PBM E-score of 8-mer
89 | GGGTGATA | 0.253 ± 0.0088
90 | AGGGGCCG | -0.0731 ± 0.021
91 | ATGCATTG | -0.0745 ± 0.048
92 | CGCGATAA | 0.328 ± 0.0095
93 | CAGATGGA | -0.158 ± 0.059
94 | ACTACACA | 0.0428 ± 0.0095
95 | AACAGGTC | 0.107 ± 0.0057
96 | ATGAAAAC | -0.254 ± 0.013
97 | TGACAGAA | -0.0128 ± 0.042
98 | ATGTCTGC | 0.00839 ± 0.0021
99 | AACGACCC | -0.0318 ± 0.0063
100 | GCACTATA | 0.0124 ± 0.00081
101 | TCGCGTCA | 0.29 ± 0.0031
102 | GTCCATTA | -0.262 ± 0.04
103 | CCCGGAGC | -0.183 ± 0.018
104 | CATCTCCG | -0.0139 ± 0.13
105 | CCCACTCC | -0.0138 ± 0.014
106 | AAGCCACA | 0.0226 ± 0.023
107 | ATTCTTCC | -0.0473 ± 0.032
108 | GCACACCA | 0.221 ± 0.03
109 | CCGCCATA | -0.0471 ± 0.036
110 | ACAAGTAC | 0.0482 ± 0.071
